Measurements published in PubChem BioAssay AID360 (National Center for Advancing Translational Sciences (NCATS), 2006).
The whole screen tested about 48,000 compounds, of which about 550 (1.1%) were called active. Roughly 4% stayed inconclusive and do not appear here. Cut-off read from the data, not from the text of the source: active = potency below about 15 µM; inconclusive = mostly about 16 µM to 33 µM; inactive = weaker than that. Some of the results follow.

molecular target: Lysosomal acid glucosylceramidase (Homo sapiens) (UniProt P04062); test: Glucocerebrosidase; conditions: purified enzyme, resorufin glucoside fluorescence (screen aimed at inhibitors), 20 min;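 note: the screen sought inhibitors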
Sequence of UniProt P04062 (P04062 whole entry, looked up): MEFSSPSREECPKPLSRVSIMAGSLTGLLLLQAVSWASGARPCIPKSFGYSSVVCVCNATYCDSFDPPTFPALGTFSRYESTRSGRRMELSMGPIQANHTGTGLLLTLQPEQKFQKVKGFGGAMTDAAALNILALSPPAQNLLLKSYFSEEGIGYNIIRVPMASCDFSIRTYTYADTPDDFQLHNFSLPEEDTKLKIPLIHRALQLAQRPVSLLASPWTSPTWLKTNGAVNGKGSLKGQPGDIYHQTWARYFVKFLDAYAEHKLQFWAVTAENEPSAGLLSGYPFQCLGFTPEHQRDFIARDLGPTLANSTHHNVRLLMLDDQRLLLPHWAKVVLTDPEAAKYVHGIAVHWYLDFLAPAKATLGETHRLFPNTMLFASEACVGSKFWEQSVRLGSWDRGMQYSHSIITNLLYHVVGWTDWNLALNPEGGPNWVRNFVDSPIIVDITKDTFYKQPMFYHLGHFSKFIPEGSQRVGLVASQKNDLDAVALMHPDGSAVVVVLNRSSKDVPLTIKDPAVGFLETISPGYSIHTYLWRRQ
Outline: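 Wild-type enzyme at 0.2 nM final in 50mM citric acid/KH2PO4, 10mM sodium taurocholate, 0.01% tween-20, pH 5.9, with resorufin beta-D-glucopyranoside at 30 uM final. Compounds titrated, 20 min at RT, red fluorescence read; AC50 from titration.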
Potency is the fitted concentration of half-maximal effect.

Potency, inactive:
CN(C1CCCCC1)S(=O)(=O)c1ccc(-n2cnnn2)cc1 > 76.9 µM
Cc1ccc(C)c(-n2c(SCC(=O)Nc3nonc3C)nnc2-c2ccoc2C)c1
CCC(C)C(NC(=O)C1CCC(C)CC1)C(=O)NC(C(=O)OC)C(C)C (stereo unspecified) > 76.9 µM
CCOC(=O)Nc1ccc2c(c1)N(C(=O)CCN1CCOCC1)c1ccccc1S2
COC(=O)c1cc(Br)c(=O)n(Cc2ccncc2)c1 > 76.9 µM
Cc1cc(Cl)cc(C)c1OCCCCn1ccnc1 > 76.9 µM
COc1ccccc1NC(=O)CNC(=O)c1ccc(F)cc1 > 76.9 µM
CCCOc1ccc(/C(O)=C2/C(=O)C(=O)N(CCOC)C2c2cccnc2)cc1 (stereo unspecified) > 76.9 µM
CN1CCN(C(c2cccc(C(F)(F)F)c2)c2nnnn2C(C)(C)C)CC1 (stereo unspecified) > 76.9 µM
Cc1nn(-c2ccccc2)c(C)c1C(=O)OC/C(O)=C(\C#N)c1nc2ccccc2[nH]1 > 76.9 µM
Cc1ccccc1NC(=O)c1c(F)c(F)c(F)c(F)c1F > 76.9 µM
COc1ccc2[nH]c(=O)c(CN(C(=O)NC3CCCCC3)C3CCCC3)cc2c1 > 76.9 µM
COC(=O)c1cc(Br)c(=O)n(CCc2ccccc2)c1 > 76.9 µM
COc1ccc(Cl)cc1CN1CCN(c2nc(C)cc(C)c2C#N)CC1 > 76.9 µM
Cc1ccc(NC(=O)Cn2c(C)cc(C)c(C#N)c2=O)c(Cl)c1 > 76.9 µM
CC(C)(CNS(=O)(=O)c1ccc(Cl)cc1)N1CCCCC1 > 76.9 µM
O=C(Nc1ccon1)c1sc2cc(F)ccc2c1Cl > 76.9 µM
CCOC(=O)CNC(=O)CSc1nc2sc(C)c(C)c2c(=O)n1C > 76.9 µM
CSCCC(NC(N)=O)C(=O)NCC1CCCCC1 (stereo unspecified) > 76.9 µM
COc1ccccc1CN(Cc1cc2c(C)ccc(C)c2[nH]c1=O)Cc1nnnn1Cc1ccco1 > 76.9 µM
O=C(Nc1ncnc2sc3c(c12)CCC3)c1ccco1 > 76.9 µM
Nc1nc(N2C(=O)C3CC=CCC3C2=O)nn1-c1ccccc1 (stereo unspecified) > 76.9 µM
C=CCNC(=O)Nc1ccc2oc(C)nc2c1 > 76.9 µM
O=C(NCc1cccnc1)c1ccc(COc2ccc3c(c2)CCC3)o1 > 76.9 µM
O=C(C1CC1)N(CCc1ccccc1)Cc1nc2ccccc2c(=O)[nH]1 > 76.9 µM
CN(C(=O)c1ccccn1)c1nnc(-c2ccccn2)s1 > 76.9 µM
